Test results: publication PMC4336329 (PLoS ONE, 2015)
The whole screen tested about 310,000 compounds, of which about 2,200 (0.71%) showed an effect of 50% or more. The effect is printed as a negative number. This is one part of the list.

What follows are compounds tested against human ether-à-go-go-related gene (hERG) potassium channel (human, UniProt Q12809) (assay: primary screen, population patch clamp on CHO cells stably expressing hERG).
Chain of human ether-à-go-go-related gene (hERG) potassium channel (Q12809 whole entry, looked up): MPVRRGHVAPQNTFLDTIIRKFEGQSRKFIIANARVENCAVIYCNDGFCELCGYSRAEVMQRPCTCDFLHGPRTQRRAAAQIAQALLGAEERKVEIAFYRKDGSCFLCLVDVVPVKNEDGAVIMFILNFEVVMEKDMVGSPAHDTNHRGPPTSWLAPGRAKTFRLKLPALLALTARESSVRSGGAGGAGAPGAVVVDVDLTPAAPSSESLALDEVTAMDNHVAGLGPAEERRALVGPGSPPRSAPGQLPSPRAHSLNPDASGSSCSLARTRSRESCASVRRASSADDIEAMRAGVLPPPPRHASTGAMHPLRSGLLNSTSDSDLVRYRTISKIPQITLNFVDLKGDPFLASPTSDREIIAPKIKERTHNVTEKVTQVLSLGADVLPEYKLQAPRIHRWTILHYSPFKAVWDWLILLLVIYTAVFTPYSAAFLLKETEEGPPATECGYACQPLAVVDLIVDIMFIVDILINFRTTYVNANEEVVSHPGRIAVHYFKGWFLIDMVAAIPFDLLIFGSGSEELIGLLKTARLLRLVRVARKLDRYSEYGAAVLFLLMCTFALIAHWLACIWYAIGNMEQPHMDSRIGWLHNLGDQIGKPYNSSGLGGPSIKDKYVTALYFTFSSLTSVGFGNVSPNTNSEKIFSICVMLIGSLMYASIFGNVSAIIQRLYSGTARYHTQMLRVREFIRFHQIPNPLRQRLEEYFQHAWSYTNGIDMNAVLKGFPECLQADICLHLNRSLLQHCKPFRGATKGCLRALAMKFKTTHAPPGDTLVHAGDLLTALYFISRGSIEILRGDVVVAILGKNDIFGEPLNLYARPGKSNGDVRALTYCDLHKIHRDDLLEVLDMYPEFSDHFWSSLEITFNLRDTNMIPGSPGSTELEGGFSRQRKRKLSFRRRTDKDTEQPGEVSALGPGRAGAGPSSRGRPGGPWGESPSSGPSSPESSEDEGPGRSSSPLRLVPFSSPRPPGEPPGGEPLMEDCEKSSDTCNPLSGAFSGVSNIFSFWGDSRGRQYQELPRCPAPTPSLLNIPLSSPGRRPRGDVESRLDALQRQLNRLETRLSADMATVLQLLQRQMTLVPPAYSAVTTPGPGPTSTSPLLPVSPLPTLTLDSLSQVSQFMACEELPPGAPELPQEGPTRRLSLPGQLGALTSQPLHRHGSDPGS

Row | Compound | hERG current change (%, negative = inhibition) at 1uM [%]
1 | O=P(CCCO)(Cc1ccccc1)Cc1ccccc1 | 15.3
2 | Cc1occc1C(=O)Nc1nnc(C(F)(F)F)s1 | 10.4
3 | C/C(CC(=O)Nc1cc(Cl)ccc1Cl)=N\NC(N)=S | -5.1
4 | COc1ccc(C)cc1-n1c(SCC(=O)NC2CC2)nc2ccccc2c1=O | -6.11
5 | CC1(C)NC(C)(C)/C(=C\c2cccs2)C(=O)C1=O | 17.3
6 | CCN(CC)S(=O)(=O)c1ccc(N2CCOCC2)c(NC(=O)Cc2ccccc2F)c1 | 7.8
7 | CC(=O)C1=C(O)C(=O)N(C)C1c1ccccc1[N+](=O)[O-] (stereo not shown) | -0.251
8 | C=C1C(=O)O[C@@H]2[C@H]3O[C@]3(C)CC/C=C(\C)CC[C@@H]12 | 11.9
9 | CCCn1nnnc1SCC(=O)N1CCCc2ccccc21 | 16.9
10 | NS(=O)(=O)c1ccc(NC(=O)Nc2ccc3c(c2)OCO3)cc1 | 12.5
11 | COc1cc(CN2CCC(CCC(=O)NC3CC3)CC2)cc(Cl)c1OC | -13.9
12 | CC(C)n1c(=O)c(C=Nc2cccc([N+](=O)[O-])c2)c(O)n(CCc2ccccc2)c1=O | -0.174
13 | CC(=O)N1[C@@H]2CC3C4CC=C5C[C@@H](O)CC[C@]5(C)C4CC[C@]3(C)[C@@]21C(C)=O (stereo partly shown) | 0.456
14 | CSc1cc(-c2ccc(Cl)cc2)c(C(=O)NN)s1 | 7.43
15 | COc1ccc(OC)c(Nc2nc(-c3sc(NC(=O)C(C)(C)C)nc3C)cs2)c1 | 19.8
16 | Cc1csc(NC(=O)C(C)N2C(=O)c3ccccc3S2(=O)=O)n1 (stereo not shown) | 10
17 | CN(C)/C=C(/C(=O)c1ccc(Cl)c(Cl)c1)S(C)(=O)=O | 11.9
18 | Cc1cc(C)c(C)c(S(=O)(=O)NCc2cccnc2)c1C | 9.63
19 | CN(Cc1nc2ccccc2c(=O)[nH]1)C(=O)c1cc(C2CC2)nn1-c1ccccc1 | -18.9
20 | CCOc1ccccc1CNC(=O)CCCn1ncn2c(cc3occc32)c1=O | 6.59
21 | Cc1nnc(SCc2nnc(-c3cccs3)o2)n1Cc1ccccc1 | 12.1
22 | COCNc1nc(OCC#N)nc(N(C)C)n1 | -2.97
23 | COc1cc(S(=O)(=O)Nc2cccc3cn[nH]c23)c(OC)cc1Cl | 7.71

Row | Compound | hERG current change (%, negative = inhibition) at 1uM [%]
24 | CC/S(C)=N/S(=O)(=O)c1ccc(C)cc1 (stereo not shown) | 10.4
25 | O=C(NNC(=S)NC1CCCCC1)c1ccc2c(c1)OCO2 | 16.2
26 | Cc1ccccc1C(=O)NC(CC(C)C)C(=O)N1CCN(c2ccccc2)CC1 (stereo not shown) | 7.64
27 | C/C(=N\O)C(=O)C(CN1CCCCC1)CN1CCCCC1 | 12.5
28 | Cc1ccc(NC(=O)Nc2ccc(Cl)c(Cl)c2)nc1 | 14.6
29 | COC(=O)CNC(c1ccccc1)c1cc(Br)ccc1NC(=O)OCc1ccccc1 (stereo not shown) | 14.3
30 | CCN(CC)S(=O)(=O)c1ccc2oc(SCC3CN=C(c4ccc(OC)cc4)S3)nc2c1 (stereo not shown) | 14.2
31 | CCn1c(-c2ccoc2C)n[nH]c1=S | 8.68
32 | COc1ccc(-c2noc(CCC(=O)O)n2)cc1 | 5.7
33 | CCN(C(=O)COC(=O)Cc1c[nH]c2ccccc12)C1CCS(=O)(=O)C1 (stereo not shown) | 14.6
34 | COc1ccc(C(=O)CC2OC(=O)c3ccccc32)cc1OC (stereo not shown) | -2.06
35 | Cc1nc(SCC(=O)Nc2cccnc2Cl)nc(C)c1C | 5.02
36 | Cc1cc(C(=O)CSc2nnc(-c3cccnc3)n2-c2ccccc2)c(C)n1CC1CCCO1 (stereo not shown) | 8.03
37 | O=C(OCc1c(Cl)cccc1Cl)c1ccccn1 | 4.21
38 | CCC(C)(C)NC(=O)C(c1cccn1C)N(Cc1ccc(C)cc1)C(=O)Cn1nnc2ccccc21 (stereo not shown) | 9.85
39 | O=C(NCc1ccccc1F)C1CCCN1C(=O)NCc1ccccc1 (stereo not shown) | 13.4
40 | COC(=O)C1=C(c2cccc(OCc3ccccc3)c2)C[C@@H]2CC[C@H]1N2C(=O)NCc1ccc(C(C)(C)C)cc1 | 11.6
41 | O=[N+]([O-])c1ccccc1Oc1ccc(S(=O)(=O)N2CCOCC2)cc1 | 7.24
42 | CC(C)=CC1C(C(=O)Nc2ccc(Br)cn2)C1(C)C (stereo not shown) | -6
43 | COc1ccc(S(=O)(=O)Nc2nnc(C(C)(C)C)s2)cc1 | 15.8
44 | Cc1noc(C)c1COc1ccc(C(=O)N2CCC(C)CC2)cc1 | 2.95
45 | CCC(=O)NC(NCC1CCCO1)C(Cl)(Cl)Cl (stereo not shown) | 10.3
46 | O=C(CCCCn1c(=S)[nH]c2ccsc2c1=O)NCc1ccco1 | 5.36

Row | Compound | hERG current change (%, negative = inhibition) at 1uM [%]
47 | COc1ccccc1C1CC(c2cccs2)=Nc2ccccc2S1 (stereo not shown) | 13
48 | COc1ccccc1NS(=O)(=O)c1ccc(C)c(C(=O)NCC2(N(C)C)CCCCC2)c1 | -2.66
49 | O=C(CN(C(=O)c1csnn1)c1ccc(Cl)cc1)NCc1ccc2c(c1)OCO2 | 22.9
50 | NC(=O)N1OCC2COc3ccc4ccccc4c3C21 (stereo not shown) | -19
51 | Cl.O=C(OCCN1CCCCC1)c1cc2ccccc2o1 | 5.08
52 | Cc1ccc(NC(=O)CSCC(=O)N2c3ccccc3CCc3ccccc32)cc1 | 11.2
53 | COc1ccc(NC(=O)CC2Oc3ccccc3NC2=O)c(OC)c1 (stereo not shown) | 19
54 | Cc1oc(CC(C)C)cc1C(=O)NCCCC(=O)O | 12.4
55 | Cc1ccc(C2=NS(=O)(=O)N(C)C(C(=O)NCc3cccs3)=C2)cc1 | -5.89
56 | C/C=C/C(=O)Nc1nnc(C2CCCCC2)s1 | 7.19
57 | O=[N+]([O-])c1ccc(/C=N/Nc2cc(Cl)nc(-c3ccccc3)n2)cc1 | -0.0273
58 | O=C(Nc1c(F)cccc1F)c1cnc(N2CCN(c3ccccn3)CC2)c2ccccc12 | 1.75
59 | CCN1CCN(C(CNS(=O)(=O)c2ccccc2)c2ccccc2)CC1 (stereo not shown) | -3.2
60 | CCCCSc1nc(O)cc(=O)n1CC | 3.13
61 | CCOC(=O)C1=C(C)N=c2s/c(=C/c3ccco3)c(=O)n2C1c1cccc(OC)c1 (stereo not shown) | 11.9
62 | Cc1ccc(NC(=O)CN(C)CC(=O)Nc2ccc(N3CCOCC3)cc2)c([N+](=O)[O-])c1 | -2.38
63 | C/C(=N\NC(=O)c1nnn(-c2nonc2N)c1C)c1ccc(OCc2ccccc2)cc1 | 16.2
64 | CN(C)CCOC(=O)COc1ccc(Cl)cc1.Cl | 5.74
65 | CC(=O)Nc1nc(-c2ccc3c(c2)OCO3)cs1 | 7.16
66 | O=C(CSc1ccccc1)N1CCN(C(=O)c2ccco2)CC1 | 6.86
67 | O=C(Nc1ccc(N2CCN(C(=O)c3cccs3)CC2)cc1)c1ccco1 | 17.4
68 | O=C(N/N=C/c1cccnc1)C1CCCCC1 | 14.9
69 | Cc1ccc(NC(=O)C2(N3CCC3=O)CCCCC2)cc1 | -2.83

Row | Compound | hERG current change (%, negative = inhibition) at 1uM [%]
70 | O=C(Cn1cnc2c(nnn2Cc2ccc(Cl)cc2)c1=O)OCc1ccccc1 | 7.62
71 | COc1cccc(CNC(=O)c2cnc(-c3ccccn3)nc2C(F)(F)F)c1 | 8.42
72 | Cc1cccc(C)c1NC(=O)C(C)N1CCCCC1 (stereo not shown) | 9.5
73 | COc1ccc(NC(=O)c2cc([N+](=O)[O-])ccc2N2CCNCC2)cc1 | -4.04
74 | O=S(=O)(NCc1ccccc1)c1cccc2cccnc12 | 0.579
75 | CCOC(=O)N1CCC(NC(=O)CC2C(=O)NCCN2Cc2cccc(F)c2F)CC1 (stereo not shown) | -11.3
76 | O=[N+]([O-])C(=C1SCCS1)C(=C(Cl)Cl)N1CCCCC1 | 13.1
77 | CCCCOc1ccc(CNC(=S)N/N=C/c2ccc(OC)c(OC)c2)cc1 | 9.98
78 | CC1OC(Nc2ccc(OC(F)(F)F)cc2)C(O)C(O)C1O (stereo not shown) | 9.4
79 | O=[N+]([O-])c1ccc2nc(N3CCCC3)sc2c1 | 23
80 | Cc1occc1C(=O)Nc1ccccc1C(=O)O | 6.93
81 | Cc1ccc(C2=NCCNC2=O)c(C)c1 | 5.55
82 | Cc1cc(C)c2cc(C(c3nnnn3CC3CCCO3)N3CCN4CCCC4C3)c(=O)[nH]c2c1 (stereo not shown) | 13.2
83 | O=C(CN1CCCC1)Nc1ccc(Oc2ccc(NC(=O)CN3CCCC3)cc2)cc1 | 13.5
84 | N#CCC(=O)N/N=C/c1ccc(OC2CSC2)cc1 | 20.2
85 | COC(=O)c1ccccc1S(=O)(=O)NNC(=O)c1ccccc1-n1cccc1 | 17.4
86 | COc1ccc(S(=O)(=O)NC(C)(C)C)cc1-c1nnc2c3ccccc3c(C)nn12 | 2.51
87 | Cc1cc(=O)n2c(n1)NC(=NCc1ccccc1)NC2c1ccccc1 (stereo not shown) | 13.8
88 | CC(C)(C)c1ccc(-c2nnc3sc(-c4ccncc4)nn23)cc1 | 1.55
89 | CCN(CC)C(=O)CSc1nnc([C@H](CCSC)NC(=O)OC(C)(C)C)o1 | 1.61
90 | Cc1ccccc1NC(=S)NCCC(c1ccccc1)c1ccccc1 | 5.52
91 | Cl.N=c1sccn1CC(=O)Nc1ccccc1Cc1ccccc1 | -11.4
